Assay results from paper PMC4336329 (PLoS ONE, 2015).
About 2,200 (0.71%) of roughly 310,000 compounds showed an effect of 50% or more. The effect is printed as a negative number. The list shows a part of the results.

molecular target: human ether-à-go-go-related gene (hERG) potassium channel (human, UniProt Q12809); assay: primary screen, population patch clamp on CHO cells stably expressing hERG
Sequence (Q12809 whole entry, looked up): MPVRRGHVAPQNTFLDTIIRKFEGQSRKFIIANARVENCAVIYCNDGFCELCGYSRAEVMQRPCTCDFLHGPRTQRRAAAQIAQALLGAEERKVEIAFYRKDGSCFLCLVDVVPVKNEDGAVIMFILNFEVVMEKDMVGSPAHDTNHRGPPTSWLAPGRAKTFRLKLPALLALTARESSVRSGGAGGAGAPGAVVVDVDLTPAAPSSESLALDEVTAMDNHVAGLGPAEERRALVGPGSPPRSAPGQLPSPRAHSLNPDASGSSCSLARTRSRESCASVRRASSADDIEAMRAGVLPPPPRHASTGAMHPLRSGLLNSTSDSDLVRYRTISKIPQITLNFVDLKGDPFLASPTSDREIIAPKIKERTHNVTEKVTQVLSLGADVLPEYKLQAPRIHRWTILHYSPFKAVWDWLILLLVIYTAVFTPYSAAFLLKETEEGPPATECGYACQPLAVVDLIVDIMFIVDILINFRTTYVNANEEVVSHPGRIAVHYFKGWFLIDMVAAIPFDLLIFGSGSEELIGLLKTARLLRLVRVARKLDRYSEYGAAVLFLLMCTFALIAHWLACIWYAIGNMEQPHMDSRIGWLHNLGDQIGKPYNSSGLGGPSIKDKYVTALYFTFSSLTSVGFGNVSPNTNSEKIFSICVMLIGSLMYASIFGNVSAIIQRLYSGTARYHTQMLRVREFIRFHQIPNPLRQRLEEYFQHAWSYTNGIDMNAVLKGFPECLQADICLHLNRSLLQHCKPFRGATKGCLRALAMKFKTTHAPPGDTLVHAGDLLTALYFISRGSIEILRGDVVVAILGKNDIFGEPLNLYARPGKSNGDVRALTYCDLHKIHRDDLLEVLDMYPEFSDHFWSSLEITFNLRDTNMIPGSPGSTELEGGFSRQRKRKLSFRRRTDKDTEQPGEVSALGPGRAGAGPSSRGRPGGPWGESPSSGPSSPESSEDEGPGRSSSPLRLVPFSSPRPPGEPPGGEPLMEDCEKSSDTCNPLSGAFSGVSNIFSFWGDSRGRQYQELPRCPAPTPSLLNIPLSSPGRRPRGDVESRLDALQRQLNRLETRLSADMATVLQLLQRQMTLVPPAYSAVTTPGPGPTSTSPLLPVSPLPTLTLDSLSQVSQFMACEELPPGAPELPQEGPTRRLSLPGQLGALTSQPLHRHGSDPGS

SMILES | hERG current change (%, negative = inhibition) at 1uM [%]
COc1ccc(CN2CCOC2=O)cc1OC | 13.4
NS(=O)(=O)c1ccc(CNC(=O)c2cc(-c3cccnc3)nc3ccccc23)cc1 | 14.6
CC(=O)NNc1cc(C)nc(NS(=O)(=O)c2ccc(C)cc2)n1 | 14.4
O=C(Cn1cnc2c(oc3ccccc32)c1=O)NCc1ccccc1 | 4.83
O=C(NC(CO)Cc1ccc([N+](=O)[O-])cc1)C(Cl)Cl (centres unmarked) | 11.2
O=S(=O)(O)c1cccnc1SCc1ccccc1 | 20.4
CCOC(=O)c1cn(CC)c2cc(Cl)c([N+](=O)[O-])cc2c1=O | 8.85
COc1ccc(C(=O)Nc2cc(C)nn2-c2cccc(F)c2)cc1 | 9.2
COc1ccc2c(c1)CCc1c(C(=O)NCCCn3ccnc3)noc1-2 | -12.1
Cc1c(/C=N/NC(=O)c2sc3ccccc3c2Cl)cnn1C | 10.3
O=C(Nc1cccc([N+](=O)[O-])c1)c1ccc(N2CCCC2=O)cc1 | -9.09
CCC1C=C(c2ccccc2)C=CN=C1N(CC)CC (centres unmarked) | -41.8
CCCSc1nc(N2CCOCC2)c2c(c1C#N)CCCC2 | 8.95
O=C(NCc1ccccc1)c1ccc(CN(c2ccccn2)S(=O)(=O)c2ccccc2)cc1 | 15
COc1ccc(N2CCN(C(=S)Nc3ccccc3)CC2)cc1 | 13.5
CCN(CC)C(=O)CSc1nnc(NC(=O)CCc2ccccc2)s1 | 15.4
COC(OC)c1ccnc(-c2ccc(OC(=O)c3ccc(F)cc3)cc2)n1 | 9.75
Cc1ccc(C(=O)CCNc2ccc(Br)cc2)o1 | 2.93
O=C(CCS(=O)(=O)c1ccc2c(c1)NC(=O)CO2)NCc1ccccc1 | 16.6
COc1ccc(C2CC2/C(C)=N/OC(=O)c2cccs2)cc1 (centres unmarked) | 7.21
Cc1nnsc1C(=O)NNc1ccc(C(C)C)cc1 | 11.6
CC(/C=C1\N=C(SCc2ccccc2Cl)SC1=O)=C\c1ccccc1 | 11.5
Cc1ccc(C)c(Cn2nc(-c3ccccc3)ccc2=O)c1 | 16.7

SMILES | hERG current change (%, negative = inhibition) at 1uM [%]
COc1cc(/C=N/NC(=O)CCc2n[nH]c(=O)[nH]c2=O)cc(OC)c1OC | 4.79
O=C(Nc1ccc(Cl)cc1)N1CCCN(Cc2ccc(F)cc2)C1 | -22.4
CC(=O)Oc1ccc(-c2cccc(C(=O)NCCO)c2)cc1 | 16.3
CCOc1ccc(N2CC(C(=O)NCc3ccccn3)CC2=O)cc1 (centres unmarked) | 11.7
N#Cc1nc(Cc2cccc3ccccc23)oc1N1CCOCC1 | -3.96
CS(=O)(=O)c1ccc(C(=O)Nc2ccccc2Cl)cc1 | 5.48
CCOc1cc(C2/C(=C(/O)c3ccc(OC(C)C)cc3)C(=O)C(=O)N2CCCOC)ccc1O (centres unmarked) | 21.3
O=C(Nc1ccc2c(c1)OCO2)C1COc2ccccc2O1 (centres unmarked) | 12.8
CCn1c(C(C)NS(=O)(=O)c2ccc(Cl)cc2)n[nH]c1=S (centres unmarked) | 14.7
COc1ccc(C(=O)N2c3ccccc3CC2C)cc1OC (centres unmarked) | 11
COc1ccccc1CC(=O)NNS(=O)(=O)c1cccc([N+](=O)[O-])c1 | 13.4
CCc1ccc(CN(C)C(=O)c2ccc3c(=O)n4c(nc3c2)CCC4)cc1 | -2.03
CCOC(=O)Cc1csc(NC(=O)CSc2nccn2C)n1 | 10.3
CCc1ccccc1NC(=S)N(Cc1ccc(C(=O)O)cc1)Cc1ccc(OC)c(OC)c1 | 12.9
COc1ccc(CCNC(=O)Cn2c(=O)n(-c3cc(F)ccc3F)c(=O)c3sccc32)cc1OC | 3.75
O=C(NCCc1ccc(Cl)cc1)C1CC(=O)N(C2CCCC2)C1 (centres unmarked) | 10.8
Cc1ccc(C)c(NC(=S)N/N=C/C(C)c2ccccc2)c1 (centres unmarked) | 0.841
Cc1nnc(-c2ccc(N3CCOCC3)c([N+](=O)[O-])c2)o1 | 12
Cc1ccccc1-n1nc2c(c1NC(=O)c1cccc(F)c1)CS(=O)C2 (centres unmarked) | 9.92
C=CCn1c(C)nnc1SCC(=O)Nc1oc(C)c2c(C)n[nH]c(=O)c12 | 3.06
Cc1onc(-c2ccccc2)c1C(=O)N/N=C/c1c(F)cccc1Cl | 15.7
CS(=O)(=O)Nc1ccc(C(=O)N2CCCCC2)cc1 | 12.5
COc1ccc(OC)c(S(=O)(=O)NCc2cc(-c3ccccc3)no2)c1 | 11.7

SMILES | hERG current change (%, negative = inhibition) at 1uM [%]
Cc1ccc(/C=C2\SC(=S)N(CCC(=O)NNS(=O)(=O)c3ccccc3)C2=O)cc1 | 11.7
Cc1cccc(-n2c(SCC(=O)N3CCCC3)nnc2-c2ccccn2)c1C | 5.57
O=C(c1sc2cccc(F)c2c1Cl)N1CCN(c2ncccn2)CC1 | -65.4
COC(=O)c1ccccc1NC(=O)CSc1n[nH]c(CC(C)C)n1 | 8.94
COc1ccccc1N1CCN(c2ccc(Cl)nn2)CC1 | 11.8
O=C(COCc1cc(-c2ccco2)on1)NC1CCCCC1 | 5.08
Cc1ccccc1C(=O)N1CCc2ccccc2C1 | 10.1
O=C(Cn1ncc(Cl)c(Cl)c1=O)N1CCN(S(=O)(=O)c2ccc3ccccc3c2)CC1 | -3.91
O=P(Cc1cccc[n+]1[O-])(c1ccccc1)c1ccccc1 | 11.2
CN(CCC#N)S(=O)(=O)c1ccc2[nH]cc(C(=O)NCCc3ccccc3)c(=O)c2c1 | 3.35
C#CCOCCOCCOCCNc1nc(N2CCN(C(=O)CCCCCCCCCCNC(=O)[C@H](CCC(=O)O)n3cc(CCCCCN)nn3)CC2)nc(N2CCN(C(=O)CCCCCCCCCCNC(=O)[C@@H]([C@H](C)O)n3cc(C)nn3)CC2)n1 | 20.8
COc1ccc(C(=O)COC(=O)CCCC(=O)NC2CCCCC2)cc1 | 4.94
Cc1ccccc1NC(=O)N1CCCC1C(=O)NCc1ccccc1 (centres unmarked) | 14.1
Cc1ccc(N2C(=O)NC(NS(=O)(=O)c3ccccc3)(C(F)(F)F)C2=O)cc1C (centres unmarked) | 39.2
NS(=O)(=O)c1cccc(NC(=O)COC(=O)CCc2ccccc2)c1 | 10.5
COC(=O)c1ccc(NC(=O)c2snnc2-c2ccccc2)cc1 | 10.7
COc1ccc(COC(=O)c2n[nH]c3ccccc23)cc1F | -0.258
COc1ccc(CCNC(=S)N2CCC(C(=O)c3ccc(F)cc3)CC2)cc1OC | 3.61
CCOC(=O)c1oc2c(c1C)/C(=N/O)CCC2 | 15.2
Nc1nonc1-n1nnc(C(=O)N/N=C/c2ccccc2Cl)c1COc1ccc(F)cc1 | 6.94
CCN(c1ccccc1)S(=O)(=O)c1ccc(N)c(OC)c1 | 4.28
CCC(Oc1ccc(F)cc1)C(=O)N1CCCCCCC1 (centres unmarked) | 3.47
COc1ccc(Cn2c(O)c(C=Nc3ccccc3)c3ccccc3c2=O)cc1 | 6.4

SMILES | hERG current change (%, negative = inhibition) at 1uM [%]
Oc1c(Br)cc(Br)cc1C=Nc1ccc2[nH]ncc2c1 | 8.91
Cc1cc(C)n(CCn2nc(C)cc2C)n1 | 4.08
CCCOc1ccc(Cn2c(=O)oc3ccc(C)cc32)cc1 | 12.7
O=C(CN(Cc1ccco1)C(=O)CNS(=O)(=O)c1ccc(Cl)cc1)NCC1CCCO1 (centres unmarked) | 6.09
CC1CN(CCCCOc2ccc(Cl)c3ccccc23)CC(C)O1.O=C(O)C(=O)O (centres unmarked) | 21.2
Cc1sc2ncnc(OCC(=O)N3CCN(S(=O)(=O)c4ccccc4)CC3)c2c1C | 7.8
O=C(c1ccc2oc(Cc3ccc(Cl)cc3)nc2c1)N1CC[C@H](O)C1 | 12.1
CCOC(=O)C1CCN(C(=O)CCNC(=O)Cn2ccc3ccccc3c2=O)CC1 | 9.34
C#CCN(CC=C)C(=O)c1ccc2nc(C3CCCCC3)oc2c1 | 7.36
NC(=O)C1c2ccccc2Oc2ccccc21 | 3.54
Cc1nc2scc(-c3ccccc3)c2c(=O)n1N | 3.11
Cc1ccccc1N1CCN(C(=O)c2ccccc2NC(=O)/C=C\C(=O)O)CC1 | 7.08
Cc1c(Cl)cccc1NC(=O)CC(Cc1ccccc1)C(=O)O (centres unmarked) | 8.44
Cn1c(=O)c2cc(S(=O)(=O)NC(Cc3ccccc3)C(=O)NCC3CCCO3)ccc2n(C)c1=O (centres unmarked) | 3
Cc1cc(C)c2c(N)c(C(=O)N3CCc4ccccc4C3)sc2n1 | 12.3
Cc1cc(=O)cc(C)n1-c1ccccc1Br | 13.2
COc1cccc(CNC(=O)COC(=O)CN(C)S(=O)(=O)c2ccc(NC(C)=O)cc2)c1 | 8.75
CC(C)Cn1c(N2CCN(C(=O)c3cccs3)CC2)nc2ccccc21 | -74.7
O=C(NNC(=S)Nc1ccc(Br)cc1)c1ccccc1Br | 2.51
O=C(CSc1nnc(CNC(=O)c2cccs2)o1)Nc1cccc(C(F)(F)F)c1 | 6.27
